The list shows a part of the results. Most values come without repeats; read them as rough.
test system: WM3526; assay: cell count relative to DMSO control; melanoma cells; higher = more viable cells; settings: library dose: standard library concentration; 72 h
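Further: cells treated in 1,536-well plates, then fixed and DAPI-stained, with nuclei counted from automated high-throughput microscope images.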

Row | SMILES | cell count [%]
1 | CC1(C)CCC(c2ccc(Cl)cc2)=C(CN2CCN(c3ccc(C(=O)NS(=O)(=O)c4ccc(N[C@H](CCN5CCOCC5)CSc5ccccc5)c(S(=O)(=O)C(F)(F)F)c4)cc3)CC2)C1 + COc1cc(N2CCC(N3CCN(C)CC3)CC2)ccc1Nc1ncc(Cl)c(Nc2ccccc2S(=O)(=O)C(C)C)n1 [NVP-TAE684] (first compound 2 µM, partner dose 0.4 µM) | 59.8
2 | CC1(C)CCC(c2ccc(Cl)cc2)=C(CN2CCN(c3ccc(C(=O)NS(=O)(=O)c4ccc(N[C@H](CCN5CCOCC5)CSc5ccccc5)c(S(=O)(=O)C(F)(F)F)c4)cc3)CC2)C1 + Cn1cc(/C=C2\C(=O)Nc3cccnc32)c2ccccc21 [GW441756] (first compound 2 µM, partner dose 2 µM) | 112
3 | O=C(/C=C/c1cccnc1)NCCCCC1CCN(C(=O)c2ccccc2)CC1 + COc1cc2ncnc(Nc3ccc(Oc4ccccc4)cc3)c2cc1OC [SrcI1] (first compound 0.05 µM, partner dose 10 µM) | 50
4 | O=C(/C=C/c1cccnc1)NCCCCC1CCN(C(=O)c2ccccc2)CC1 + O=S(=O)(c1ccccc1)N(CC(F)(F)F)c1ccc(C(O)(C(F)(F)F)C(F)(F)F)cc1 [T0901317] (first compound 0.05 µM, partner dose 7 µM) | 84
5 | CC1(C)CCC(c2ccc(Cl)cc2)=C(CN2CCN(c3ccc(C(=O)NS(=O)(=O)c4ccc(N[C@H](CCN5CCOCC5)CSc5ccccc5)c(S(=O)(=O)C(F)(F)F)c4)cc3)CC2)C1 + COC(=O)c1sccc1S(=O)(=O)Nc1ccc(Nc2ccccc2)cc1OC [GSK0660] (first compound 2 µM, partner dose 5 µM) | 84.6
6 | CC1(C)CCC(c2ccc(Cl)cc2)=C(CN2CCN(c3ccc(C(=O)NS(=O)(=O)c4ccc(N[C@H](CCN5CCOCC5)CSc5ccccc5)c(S(=O)(=O)C(F)(F)F)c4)cc3)CC2)C1 + c1cc(-c2cnn3cc(-c4ccc(OCCN5CCCCC5)cc4)cnc23)ccn1 [Dorsomorphin] (first compound 2 µM, partner dose 2 µM) | 84.4
7 | Cc1ccc(Nc2nccc(N(C)c3ccc4c(C)n(C)nc4c3)n2)cc1S(N)(=O)=O [Pazopanib] + CO[C@@H]1[C@H](N(C)C(=O)c2ccccc2)C[C@H]2O[C@]1(C)n1c3ccccc3c3c4c(c5c6ccccc6n2c5c31)C(=O)NC4 [Midostaurin] (first compound 2 µM, partner dose 0.4 µM) | 63.5
8 | O=C(/C=C/c1cccnc1)NCCCCC1CCN(C(=O)c2ccccc2)CC1 + CO[C@@H]1[C@H](N(C)C(=O)c2ccccc2)C[C@H]2O[C@]1(C)n1c3ccccc3c3c4c(c5c6ccccc6n2c5c31)C(=O)NC4 [Midostaurin] (first compound 0.05 µM, partner dose 0.4 µM) | 80.2
9 | Cc1ccc(Nc2nccc(N(C)c3ccc4c(C)n(C)nc4c3)n2)cc1S(N)(=O)=O [Pazopanib] + Oc1nc(-c2ccc(C(F)(F)F)cc2)nc2c1CSCC2 [XAV939] (first compound 2 µM, partner dose 10 µM) | 88
10 | CC1(C)CCC(c2ccc(Cl)cc2)=C(CN2CCN(c3ccc(C(=O)NS(=O)(=O)c4ccc(N[C@H](CCN5CCOCC5)CSc5ccccc5)c(S(=O)(=O)C(F)(F)F)c4)cc3)CC2)C1 + Cc1ccc(Nc2nccc(N(C)c3ccc4c(C)n(C)nc4c3)n2)cc1S(N)(=O)=O [Pazopanib] (first compound 2 µM, partner dose 2 µM) | 70.1
11 | CC1(C)CCC(c2ccc(Cl)cc2)=C(CN2CCN(c3ccc(C(=O)NS(=O)(=O)c4ccc(N[C@H](CCN5CCOCC5)CSc5ccccc5)c(S(=O)(=O)C(F)(F)F)c4)cc3)CC2)C1 + CCCCCCCCCCCC1=C(O)C(=O)C=C(O)C1=O [Embelin] (first compound 2 µM, partner dose 6 µM) | 77.1
12 | Cc1ccc(Nc2nccc(N(C)c3ccc4c(C)n(C)nc4c3)n2)cc1S(N)(=O)=O [Pazopanib] + NCC(=O)Nc1ccc(-n2nc(C(F)(F)F)cc2-c2ccc3c(ccc4ccccc43)c2)cc1 [OSU03012] (first compound 2 µM, partner dose 5 µM) | 45.7
13 | O=C(/C=C/c1cccnc1)NCCCCC1CCN(C(=O)c2ccccc2)CC1 + Cn1cc(/C=C2\C(=O)Nc3cccnc32)c2ccccc21 [GW441756] (first compound 0.05 µM, partner dose 2 µM) | 132
14 | O=C(/C=C/c1cccnc1)NCCCCC1CCN(C(=O)c2ccccc2)CC1 + CCCCCCCCCCCC1=C(O)C(=O)C=C(O)C1=O [Embelin] (first compound 0.05 µM, partner dose 6 µM) | 123
15 | O=C(/C=C/c1cccnc1)NCCCCC1CCN(C(=O)c2ccccc2)CC1 + Cc1cc(Nc2cc(N3CCN(C)CC3)nc(/C=C/c3ccccc3)n2)n[nH]1 [ENMD2076] (first compound 0.05 µM, partner dose 0.2 µM) | 70.8
16 | O=C(/C=C/c1cccnc1)NCCCCC1CCN(C(=O)c2ccccc2)CC1 + COC(=O)c1sccc1S(=O)(=O)Nc1ccc(Nc2ccccc2)cc1OC [GSK0660] (first compound 0.05 µM, partner dose 5 µM) | 102
